About 11,000 (3.1%) of roughly 360,000 compounds were called active. This list was built around the results that the source calls inconclusive (neither active nor inactive); the mix of calls is not that of the screen. Calls follow the shape of the dose curve; as a rule, active = well fitted inhibition curve with a large enough effect; inconclusive = small, poorly fitted or top-dose-only effect; inactive = no such curve, though single readings can be large or run the other way. No potency is given beside an inconclusive call; the fits are too rough.
molecular target: Schistosoma mansoni thioredoxin glutathione reductase (TGR) (UniProt Q962Y6); experiment: qHTS Assay for the Inhibitors of Schistosoma Mansoni Peroxiredoxins; conditions: purified TGR, DTNB reduction, TNB absorbance 405 nm; activity change, negative = inhibition: at 114 µM (top of the series) unless noted; also: nearly all actives have a fitted effect of over 60% in size
Method in brief: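 First, TGR (20 nM dispensed) and NADPH were mixed with compound. Second, a 15 min room-temperature incubation followed. Third, further NADPH and then DTNB were added to start the reaction. Finally, TNB absorbance was monitored kinetically.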
% is scaled to controls: 0 for no effect and ±100 for the full control effect; potency is read from the fitted curve at half-maximal effect; tags tell the direction and shape of the fitted curve.

| SMILES | activity change, negative = inhibition | Potency |
| --- | --- | --- |
| Cc1oc(-c2ccc(Cl)cc2)nc1Cn1c(=O)cc(-c2ccccc2)c2c(C)nn(C)c21 | inactive: -9.98% | – |
| COc1ccccc1CN1CCNC(=O)C1CC(=O)N(C)Cc1cnccn1 (configuration not stated) | – | inconclusive [inhibitor, partial curve] |
| CCOc1ccccc1C1CC(c2cccs2)=NN1S(C)(=O)=O (configuration not stated) | – | active: 3.98 µM |
| O=C(Nc1ccc(F)c(F)c1)C1CCCCC1 | inactive: -5.41% | – |
| COC(=O)c1ccc(CSc2nnc3sc4ccccc4n23)o1 | – | inconclusive [inhibitor, partial curve] |
| CC(=O)NCc1ccc2[nH]c(C)cc2c1 | – | active: 39.8 µM |
| COC(=O)c1ccc(Sc2nnnn2-c2ccccc2)c([N+](=O)[O-])c1 | – | inconclusive [inhibitor, partial curve] |
| COC(=O)C(CC(=O)c1ccc(C)cc1)n1cccn1 (configuration not stated) | – | inconclusive [inhibitor, partial curve] |
| Cn1cccc1-c1cc(C(=O)N/N=C/c2cccc(O)c2)[nH]n1 | – | inconclusive [inhibitor, partial curve] |
| CC1=CC(C)(C)N(S(=O)(=O)c2ccc(C)cc2)c2ccc(C)cc21 | inactive: -21.7% | – |
| CC(=O)c1cc(-c2ccccc2)n(CCC(=O)Nc2cc(C)cc(C)c2)c1C | inactive: 0.0995% | – |
| CSc1ccccc1NC(=O)CN(C)Cc1c(O)ccc2ccccc12 | – | active: 0.794 µM |
| O=C(CN1CCN(Cc2ccccc2Cl)C1=O)NCc1ccco1 | – | inconclusive [inhibitor, full curve, poor fit] |
| CC(=O)NC12CC3CC(C1)CC(C(=O)OCC(=O)c1ccc4c(c1)OCCO4)(C3)C2 | – | inconclusive [inhibitor, single point] |
| Clc1ccc(C2=NCCn3nc4ccccc4c32)cc1 | – | inconclusive [inhibitor, partial curve] |
| Cc1ccccc1-n1c(C)c(C#N)c(=O)c(-[n+]2ccccc2)c1[S-] | – | inconclusive [inhibitor, partial curve] |
| CCN(CC)CCOC(=O)c1ccc(NC(=O)c2cc3cc(OC)ccc3oc2=O)cc1 | inactive: 9.84% | – |
| COc1ccccc1NC(=O)Cn1c(=O)n(CC2CCC(C(=O)NCCc3ccccc3)CC2)c(=O)c2ccccc21 (configuration not stated) | inactive: -0.118% | – |
| CCN(CC)c1ccc(/C=N/NC(=O)Cc2cccs2)cc1 | inactive: 0.619% | – |

| SMILES | activity change, negative = inhibition | Potency |
| --- | --- | --- |
| O=C(c1ccc2nc(-c3ccco3)c(-c3ccco3)nc2c1)N1CCN(c2ccccc2)CC1 | – | active: 35.5 µM |
| C/C(Cn1nnc([N+](=O)[O-])n1)=N\NC(=O)c1ccc(O)cc1 | inactive: -13.5% | – |
| COc1ccc(-c2csc(Nc3cc(C)ccn3)n2)cc1OC | – | inconclusive [inhibitor, full curve, poor fit] |
| CCc1ccc(NC(=O)C2CCCN(c3nnc(C)c4c(C)n(-c5ccccc5)nc34)C2)cc1 (configuration not stated) | inactive: 4.83% | – |
| Cc1ccsc1-c1nc(CN(C)C(C2CC2)C2CC2)c(C)o1 | – | inconclusive [inhibitor, partial curve] |
| O=C(CSc1ncn[nH]1)c1ccco1 | – | inconclusive [inhibitor, partial curve] |
| COc1ccccc1CNC(=O)CCCCn1c(=O)c2ccccc2n(CC(=O)Nc2cccc(Cl)c2)c1=O | inactive: 8.96% | – |
| Nc1nc(-c2cccs2)c(CC(=O)O)s1 | – | active: 39.8 µM |
| O=C(NC1CCN(Cc2ccccc2)C1)c1cc(COc2ccc(F)cc2F)on1 (configuration not stated) | – | inconclusive [inhibitor, partial curve] |
| Cc1c(Cl)c([N+](=O)[O-])nn1CCCC(=O)NCCc1ccccc1 | inactive: -7.12% | – |
| Cc1ccc(-c2nnc(SCC#CCOC(=O)c3cccs3)o2)cc1 | inactive: -19.7% | – |
| COc1ccc(/C=C/C(=O)c2ccncc2)c2ccccc12 | – | inconclusive [inhibitor, partial curve] |
| Cc1cc(C(=O)CN2CCCC2)c(C)n1-c1ccc(F)cc1 | – | active: 44.7 µM |
| CC(=O)Nc1ccc(C(=O)Nc2nc(-c3ccccn3)cs2)cc1 | – | inconclusive [inhibitor, partial curve] |
| COc1cc(CNc2ccc3[nH]c(=O)[nH]c3c2)cc(Br)c1OCc1ccccc1F | – | inconclusive [inhibitor, full curve] |
| CC/C(=N\Nc1cccc2ccccc12)c1c(O)[nH]c(=O)[nH]c1=O | – | active: 79.4 µM |
| CCN1C(=Nc2ccc(Cl)cc2)SC/C1=C\C(=O)OC | – | inconclusive [inhibitor, partial curve, poor fit] |
| COc1ccc(-c2nc(CCl)cs2)cc1OC | – | inconclusive [inhibitor, partial curve] |

Source: PubChem BioAssay AID485364 (National Center for Advancing Translational Sciences (NCATS), 2010)
